The other results are listed elsewhere or left out.

B1: PhoQ; a variant is named by its letters at X, in order, P23837 (parent)
chain: MKKLLRLFFPLSLRVRFLLATAAVVLVLSLAYGMVALIGYSVSFDKTTFRLLRGESNLFYTLAKWENNKLHVELPENIDKQSPTMTLIYDENGQLLWAQRDVPWLMKMIQPDWLKSNGFHEIEADVNDTSLLLSGDHSIQQQLQEVREDDDDAEMTHSVAVNVYPATSRMPKLTIVVVDTIPVELKSSYMVWSWFIYVLSANLLLVIPLLWVAAWWSLRPIEALAKEVRELEEHNRELLNPATTRELTSLVRNLNRLLKSERERYDKYRTTLTDLTHSLKTPLXXLQXXLRSLRSEKMSVSDAEPVMLEQISRISQQIGYYLHRASMRGGTLLSRELHPVAPLLDNLTSALNKVYQRKGVNISLDISPEISFVGEQNDFVEVMGNVLDNACKYCLEFVEISARQTDEHLYIVVEDDGPGIPLSKREVIFDRGQRVDTLRPGQGVGLAVAREITEQYEGKIVAGESMLGGARMEVIFGRQHSAPKDE

The variants in the assay derive from B1. The assay is described as follows: enrichment ratio after two sorts for PhoP signalling (ratio (wild type AVST 3.29)); higher = more functional. As to conditions: with PhoP (E. coli).
In the case of PLLN, the enrichment ratio was no more than 0.25.
The result for VFPF reads no more than 0.25.
Then EHYM, with no more than 0.25; and NFKA, with 0.542; and QNTS, with no more than 0.25.
The result for TTGP reads no more than 0.25; that for FSSP, no more than 0.25.
As to YGYR, the enrichment ratio is no more than 0.25.
The result for INHC reads no more than 0.25; that for TNQL, 12.7.
Then RHLI, with no more than 0.25; and VYVL, with no more than 0.25.
VNDW: the enrichment ratio was no more than 0.25.
Then GGPP, with no more than 0.25.
Then RNYK, with no more than 0.25.
The result for GWQM reads no more than 0.25.
Consider HNSG, for which the enrichment ratio is no more than 0.25.
Then EHES, with no more than 0.25; and QGIT, with no more than 0.25; and VYFY, with no more than 0.25.
Then TGCQ, with 13.9.
For QAYV, the enrichment ratio came to 12.6.
Then HDNV, with no more than 0.25; and HQCW, with no more than 0.25; and SNAY, with 14.8.
Then MHPN, with no more than 0.25; and HSDT, with no more than 0.25.
The result for RSEK reads no more than 0.25.
As to HHLC, the enrichment ratio was no more than 0.25.
The result for RWIS reads no more than 0.25.
The result for RAKR reads no more than 0.25; that for GPPP, no more than 0.25; that for WHRI, no more than 0.25.
The result for LAAN reads no more than 0.25.
Regarding KKIP, the enrichment ratio is no more than 0.25.
The result for FPNF reads no more than 0.25; that for ECEA, no more than 0.25.
The result for MDYI reads no more than 0.25; that for GDDR, no more than 0.25.
The result for MCTM reads 5.19; that for NDQM, no more than 0.25.
Consider LKCV, for which the enrichment ratio was no more than 0.25.
On to GELA, for which the enrichment ratio came out at 18.1.
Then GNGT, with no more than 0.25; and RDIA, with no more than 0.25; and DDFR, with no more than 0.25.
Then PSRL, with no more than 0.25.
The result for QYSD reads no more than 0.25; that for HQWA, no more than 0.25; that for ADYP, no more than 0.25.
Take FRKH: the enrichment ratio is no more than 0.25.
Then PDNI, with no more than 0.25.
The result for VFYN reads no more than 0.25.
For the variant FRRT, the enrichment ratio was no more than 0.25.
Consider MKSN, for which the enrichment ratio is no more than 0.25.
Regarding TSCD, the enrichment ratio worked out at 9.13.
The result for DKIK reads no more than 0.25; that for EMAI, no more than 0.25; that for NWFF, no more than 0.25.
Then HPQQ, with no more than 0.25; and FVHW, with no more than 0.25.
The result for MSEL reads no more than 0.25; that for NQAH, no more than 0.25.
Take DGPT: the enrichment ratio was no more than 0.25.
Regarding FPDS, the enrichment ratio is no more than 0.25.
Then AQKW, with no more than 0.25.
Regarding YFAN, the enrichment ratio is no more than 0.25.
Then SQEG, with no more than 0.25; and SFIQ, with no more than 0.25.
The result for TNNW reads no more than 0.25.
The result for YHST reads no more than 0.25; that for APCQ, no more than 0.25; that for RSVK, no more than 0.25.
Consider QKYF, for which the enrichment ratio turned out to be 4.34.
Then FNDM, with no more than 0.25; and AIQW, with no more than 0.25; and HCTR, with no more than 0.25.
Then GCGF, with no more than 0.25; and IRHY, with no more than 0.25.
The result for HSSN reads no more than 0.25; that for WMRV, no more than 0.25; that for ASWV, no more than 0.25.
With ALIN, the enrichment ratio is no more than 0.25.
The result for TMHA reads no more than 0.25; that for HLRS, no more than 0.25; that for ALVM, 2.63.
The result for KDNF reads no more than 0.25.
Then SNCT, with 8.8.
Take MKEF: the enrichment ratio was no more than 0.25.
Then LPNR, with no more than 0.25; and NQIY, with no more than 0.25.
Then TYCR, with no more than 0.25; and ILGE, with no more than 0.25.
Turning to DCIY, the enrichment ratio was no more than 0.25.
The result for DYIE reads no more than 0.25.
Consider SHVA, for which the enrichment ratio is no more than 0.25.
Then NFMS, with no more than 0.25.
The result for TSHP reads no more than 0.25.
The result for IEPC reads no more than 0.25.
For SNET, the enrichment ratio was no more than 0.25.
The result for LSAM reads no more than 0.25; that for VQYH, no more than 0.25; that for ALNN, no more than 0.25.
Then SCNW, with no more than 0.25; and HETV, with 4.78.
For the variant YLTR, the enrichment ratio is no more than 0.25.
The result for MIPM reads no more than 0.25; that for LNTF, no more than 0.25; that for ARPI, no more than 0.25.
Then IVVK, with no more than 0.25; and AEFS, with 19; and DEQV, with no more than 0.25.
Then WHFR, with no more than 0.25.
For RNEG, the enrichment ratio is no more than 0.25.
The result for ALKH reads no more than 0.25; that for LTSL, no more than 0.25.
The result for MKLS reads no more than 0.25; that for SEPL, no more than 0.25.
The result for LEME reads no more than 0.25.
On to NDWN, for which the enrichment ratio is no more than 0.25.
Then MKWT, with no more than 0.25.
Then PCGC, with no more than 0.25; and DTTV, with no more than 0.25.
The result for AMGW reads no more than 0.25; that for NPVK, no more than 0.25; that for RNAK, no more than 0.25.
Take TSTR: the enrichment ratio was no more than 0.25.
The result for VCIH reads no more than 0.25; that for PMTC, no more than 0.25.
The result for LMCT reads no more than 0.25; that for QVLT, no more than 0.25; that for TTDE, no more than 0.25.
Then ICWC, with no more than 0.25; and TLEA, with no more than 0.25; and RITE, with no more than 0.25.
On to PKRR, for which the enrichment ratio was no more than 0.25.
Then EIFV, with no more than 0.25; and SGYV, with no more than 0.25.
The result for SPLN reads no more than 0.25; that for SLHK, no more than 0.25.
The result for TNCG reads no more than 0.25; that for MNTS, no more than 0.25; that for GWHN, no more than 0.25.
Consider PLNY, for which the enrichment ratio was no more than 0.25.
Turning to YVMK, the enrichment ratio was no more than 0.25.
For HWLM, the enrichment ratio is no more than 0.25.
The result for NDSV reads no more than 0.25; that for NVEP, no more than 0.25.
GNNE: the enrichment ratio is no more than 0.25.
Turning to MQAT, the enrichment ratio was 8.41.
Then DQDK, with no more than 0.25; and RMYV, with no more than 0.25; and HHYE, with no more than 0.25.
For the variant LQKK, the enrichment ratio was no more than 0.25.
In the case of SMDW, the enrichment ratio was no more than 0.25.
Consider QQAD, for which the enrichment ratio is no more than 0.25.
The result for HEWT reads no more than 0.25.
The result for PWSY reads no more than 0.25; that for SVPA, no more than 0.25; that for QDQH, no more than 0.25.
Then KSYA, with no more than 0.25; and SEGD, with 1.88.
As for KGKV, the enrichment ratio was no more than 0.25.
The result for MFPW reads no more than 0.25; that for GWVR, no more than 0.25; that for HSIA, no more than 0.25.
The result for AHEY reads no more than 0.25.
KVSG: the enrichment ratio is no more than 0.25.
Then PPSQ, with no more than 0.25.
Then NWSH, with no more than 0.25; and WGPM, with no more than 0.25; and GLYY, with no more than 0.25.
Turning to FVID, the enrichment ratio is no more than 0.25.
Then GTKG, with no more than 0.25; and AKYN, with no more than 0.25; and RVMK, with no more than 0.25.
Then QDTG, with no more than 0.25.
Take THDD: the enrichment ratio is no more than 0.25.
Then CSMF, with no more than 0.25.
WGCP: the enrichment ratio was no more than 0.25.
The result for MGYF reads 12.2; that for GILW, no more than 0.25; that for VDWR, no more than 0.25.
Then EEDM, with no more than 0.25.
FYEM: the enrichment ratio is no more than 0.25.
The result for GCPQ reads no more than 0.25.
In the case of YWMG, the enrichment ratio is no more than 0.25.
The result for PSWA reads no more than 0.25.
The result for IMCF reads no more than 0.25; that for HFIN, no more than 0.25; that for SCAG, 4.96.
KQSH: the enrichment ratio is no more than 0.25.
In the case of MYGF, the enrichment ratio is no more than 0.25.
For QYRL, the enrichment ratio is no more than 0.25.
Then VRGD, with no more than 0.25.

(Values after a collection of fitness landscapes (doi:10.1126/science.1257360).)
